Results reported in patent US20240174740A1 (EYEPOINT PHARMACEUTICALS, published 2024).

Tests used:
[1] = molecular target: T1, poly-histidine tagged HPTP-β extracellular domain (ECD) 1/2 (human, UniProt P23467 23-730, limits assumed); experiment: Biacore SPR, scouting; His-tagged HPTP-β 1/2 ECD captured by anti-His antibody
T1 construct: domain: extracellular domain (ECD) 1/2; Captured on the Biacore chip through goat anti-His antibody; also called His-tagged ligand HPTP-β 1/2 ECD; not shown: poly-histidine tag
T1 sequence (looked up): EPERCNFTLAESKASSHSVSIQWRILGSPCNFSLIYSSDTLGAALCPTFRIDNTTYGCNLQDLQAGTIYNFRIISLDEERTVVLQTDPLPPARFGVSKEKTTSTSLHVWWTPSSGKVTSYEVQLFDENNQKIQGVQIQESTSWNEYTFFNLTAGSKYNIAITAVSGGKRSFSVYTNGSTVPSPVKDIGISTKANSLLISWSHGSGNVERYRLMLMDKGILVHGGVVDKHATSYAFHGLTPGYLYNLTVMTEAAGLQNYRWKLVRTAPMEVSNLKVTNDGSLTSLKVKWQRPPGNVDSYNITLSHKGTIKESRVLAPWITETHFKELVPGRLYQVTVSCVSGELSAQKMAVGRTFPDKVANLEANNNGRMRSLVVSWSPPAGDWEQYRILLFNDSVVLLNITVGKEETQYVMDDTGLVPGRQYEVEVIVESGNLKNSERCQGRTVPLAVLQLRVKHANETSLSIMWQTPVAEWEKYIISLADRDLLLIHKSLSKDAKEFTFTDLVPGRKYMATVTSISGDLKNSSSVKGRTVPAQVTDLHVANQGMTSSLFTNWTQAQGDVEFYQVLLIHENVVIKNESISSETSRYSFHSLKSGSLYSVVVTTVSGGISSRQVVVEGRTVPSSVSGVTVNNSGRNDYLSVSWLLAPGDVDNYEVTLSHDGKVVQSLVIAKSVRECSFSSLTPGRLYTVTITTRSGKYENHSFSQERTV
Description: For analysis of binding of antibodies to HPTP-β, poly-histidine tagged HPTP-β extracellular domain (ECD) 1/2 was immobilized on a chip surface via anti-His antibodies. Goat anti-His antibody was first immobilized on the surface of the chip by direct immobilization using EDC/NHS (N-ethyl-N′-(3-dimethyl aminopropyl carbodiimide)/N-hydroxy succinamide) coupling chemistry on flow cell 2 of the CM5 (Carboxymethylated dextran coated) chip. Unoccupied sites were blocked with 1M ethanolamine. The His-tagged ligand HPTP-β 1/2 ECD was captured at a response unit (RU) of 50. The analyte (antibody) was flowed over the chip at a single analyte concentration at a time. The binding of analyte to the ligand was monitored in real time to obtain on (kₐ) and off (kd) rates. The equilibrium constant (KD) was calculated from the observed kₐ and kd.
(§1) Chi square analysis was carried out between the actual sensorgram and the sensorgram generated from the BIAnalysis software to confirm the accuracy of the analysis; values of 1-2 were considered accurate and below 1 highly accurate.

VEGF [2] = molecular target: T2, VEGF (UniProt P15692-4 27-191, limits assumed); experiment: Biacore SPR, scouting at 10 nM analyte; binder immobilised on CM5 chip, VEGF as analyte
T2 construct: also called vascular endothelial growth factor
T2 sequence (looked up): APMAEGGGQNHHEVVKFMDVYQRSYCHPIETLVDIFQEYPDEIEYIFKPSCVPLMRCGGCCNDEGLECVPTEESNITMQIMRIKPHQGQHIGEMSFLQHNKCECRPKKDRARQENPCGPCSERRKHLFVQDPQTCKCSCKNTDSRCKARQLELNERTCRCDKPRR
Procedure: The assay buffer contained 10 mM HEPES buffer (pH 7.4), 150 mM NaCl, 3 mM EDTA, and 0.05% P20 (polyoxyethylenesorbitan). […] The conjugation buffer contained 10 mM sodium acetate buffer (pH 5). A flow rate of 5 μL/minute was used for capturing ligand. A flow rate of 30 μL/minute was used for kinetic analysis.
(§2) For analysis of binding of the antibodies to VEGF, the antibodies were immobilized on the surface of the chip by direct immobilization using EDC/NHS coupling chemistry on flow cell 2 of the CM5 chip. Unoccupied sites were blocked with 1M ethanolamine. The analyte (VEGF) was flowed over the chip at a single analyte concentration at a time. The binding of analyte to the ligand was monitored in real time to obtain on (kₐ) and off (kd) rates. The equilibrium constant (KD) was calculated from the observed kₐ and kd.
as §1

VEGF [3] = molecular target: T2, VEGF; experiment: Biacore SPR, full kinetics at 0-10 nM analyte; binder immobilised on CM5 chip, VEGF as analyte
Procedure: as §2
Chi square analysis was carried out between the actual sensorgram and the sensorgram generated from the BNAnalysis software to confirm the accuracy of the analysis; values of 1-2 were considered accurate and below 1 highly accurate.

B1: Aflibercept (Fc fusion)
chain: SDTGRPFVEMYSEIPEIIHMTEGRELVIPCRVTSPNITVTLKKFPLDTLIPDGKRIIWDSRKGFIISNATYKEIGLLTCEATVNGHLYKTNYLTHRQTNTIIDVVLSPSHGIELSVGEKLVLNCTARTELNVGIDFNWEYPSSKHQHKKLVNRDLKTQSGSEMKKFLSTLTIDGVTRSDQGLYTCAASSGLMTKKNSTFVRVHEK[human IgG1 Fc not given here]
notes: Control in the Biacore assays; also called AFL1; Eylea
binding result [1]: no binding (tested: 10 nM of analyte) | Kd (VEGF [2]): 0.16 nM | Kd (VEGF [3]): 0.0375 nM
